Measured values from PubChem BioAssay AID588342 (National Center for Advancing Translational Sciences (NCATS), 2011).
Hit rate of the full screen: of about 360,000 compounds, about 25,000 (6.9%) were called active. This list was built around the results that the source calls inconclusive (neither active nor inactive); the mix of calls is not that of the screen. Calls come from the whole dose curve; as a rule, active = well fitted inhibition curve with a large enough effect; inconclusive = small, poorly fitted or top-dose-only effect; inactive = flat fitted curve, though single readings scatter. Where the call is inconclusive, the potency comes from a doubtful curve fit.

target: Luciferin 4-monooxygenase (Photinus pyralis) (UniProt P08659); experiment: qHTS profiling assay for firefly luciferase inhibitor/activator using purifed enzyme and Km concentrations of substrates (counterscreen for miR-21 project); conditions: purified FLuc, luminescence inhibition; activity change, negative = inhibition: at 57.5 µM (top of the series); note: nearly all actives have a fitted effect of over 55% in size;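 for activity change, negative = inhibition: plate controls were vehicle for no effect and reference inhibitor for full effect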
Method in brief: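 Purified P. pyralis luciferase, 10 nM final, with Km-level 10 uM D-luciferin and 10 uM ATP in 50 mM Tris acetate pH 7.5, 10 mM Mg acetate, 0.01% Tween-20, 0.05% BSA; 6-point qHTS titration about 60 µM downward; luminescence read.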
Potency is the fitted concentration of half-maximal effect; tags give direction and shape of the fitted curve.

Sequence of UniProt P08659 (P08659 whole entry, looked up): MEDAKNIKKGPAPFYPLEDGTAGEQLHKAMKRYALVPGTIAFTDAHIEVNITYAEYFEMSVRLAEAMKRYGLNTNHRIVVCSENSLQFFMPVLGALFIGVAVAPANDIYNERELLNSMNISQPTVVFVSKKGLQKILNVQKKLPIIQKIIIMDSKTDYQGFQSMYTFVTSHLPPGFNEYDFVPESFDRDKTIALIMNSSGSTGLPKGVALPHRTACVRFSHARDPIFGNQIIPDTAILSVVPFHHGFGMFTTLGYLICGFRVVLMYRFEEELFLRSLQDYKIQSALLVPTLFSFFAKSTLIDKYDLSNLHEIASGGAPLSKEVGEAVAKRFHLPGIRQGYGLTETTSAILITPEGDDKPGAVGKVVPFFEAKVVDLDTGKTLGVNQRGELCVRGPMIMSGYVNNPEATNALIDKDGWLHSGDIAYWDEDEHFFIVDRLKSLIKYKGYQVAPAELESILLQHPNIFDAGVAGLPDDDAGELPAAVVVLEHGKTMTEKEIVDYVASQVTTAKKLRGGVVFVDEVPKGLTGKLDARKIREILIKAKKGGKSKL

Which Potency does the source give for `O=C(COC(=O)c1cccc(O)c1)c1ccccc1` here?
Its Potency is inconclusive: 3.01 µM [inhibitor, full curve, poor fit].

`CN(C)c1ccc(C(C(=O)NC2CCCCC2)N(Cc2ccco2)C(=O)c2snc(C(N)=O)c2N)cc1` (centres undefined) was tested. Which “activity change, negative = inhibition” value did it give?
Its value is inactive: -1.77%.

`COc1ccc(C2=NNC(c3ccco3)=Nc3ccc(F)cc32)cc1` was tested. Which Potency did it give?
Its Potency is inconclusive: 26.9 µM [inhibitor, single point].

`Cc1ccc(NC(=O)[C@H](NC(=O)[C@@H]2Cc3ccccc3CN2)c2ccccc2)cc1C` was tested. Which Potency did it give?
The Potency was inconclusive: 26.9 µM [inhibitor, partial curve, poor fit].

`COc1ccc(CC(=O)Nc2cccc(-c3csc(C)n3)c2)cc1` was tested. Which Potency did it give?
Its Potency is inconclusive: 16.9 µM [inhibitor, partial curve].

`CCSc1nc2c(c(=O)[nH]c(=O)n2C)n1CC(O)COc1ccccc1C` (centres undefined) was tested. Which “activity change, negative = inhibition” value did it give?
Its value is inactive: -0.843%.

For `c1ccc2nc(-c3nc4ccccc4[nH]3)ccc2c1`, which Potency is on record?
The Potency was active: 0.301 µM.

With `COc1ccc(OC)c(/C=N/Nc2cc(C)nc(N3CCOCC3)n2)c1` as the compound, how does the Potency read?
Its Potency is inconclusive: 21.3 µM [inhibitor, partial curve, poor fit].

For `Cc1nc(SCc2cccc(F)c2)[nH]c(=O)c1C#N`, which Potency is on record?
The Potency was inconclusive: 26.9 µM [inhibitor, single point].

`Cc1c(NC(=O)c2cccnc2Cl)c(=O)n(-c2ccccc2)n1C` was tested. Which “activity change, negative = inhibition” value did it give?
Its value is inactive: 1.39%.

`COc1ccc(-n2nc3ccc(NC(=O)c4ccc(-c5cc(Cl)ccc5Cl)o4)cc3n2)cc1` was tested. Which Potency did it give?
The Potency was inconclusive: 23.9 µM [inhibitor, partial curve, poor fit].

Which “activity change, negative = inhibition” value does the source give for `COc1ccc(NC(=O)CSc2nnc(C)s2)cc1S(=O)(=O)N1CCOCC1` here?
The value was inactive: 2.02%.

With `COc1ccc(-c2nc3ccccc3c(=O)n2NC(=S)N(C)C)cc1` as the compound, how does the Potency read?
Its Potency is inconclusive: 30.1 µM [inhibitor, partial curve, poor fit].

How did the Potency turn out when `CCc1ccc(C(=O)CN2C(=O)NC3(CCCCCC3)C2=O)cc1` was run?
Its Potency is inconclusive: 16.9 µM [inhibitor, partial curve].

Which Potency does the source give for `C=CCc1ccccc1OCCSc1nc(-c2ccc(C(C)(C)C)cc2)nc2cc(=O)[nH]n12` here?
Its Potency is inconclusive: 26.9 µM [inhibitor, partial curve, poor fit].

`Oc1ccc(-c2nc3ccccn3c2NCc2ccco2)cc1` was tested. Which Potency did it give?
Its Potency is inconclusive: 19 µM [inhibitor, single point].

`Cc1ccccc1-c1nc(C#N)c(N2CCC(C)CC2)o1` was tested. Which Potency did it give?
Its Potency is active: 23.9 µM.

With `Cc1cc2ncn(CCOc3ccccc3)c2cc1C` as the compound, how does the Potency read?
Its Potency is active: 16.9 µM.

With `CCOc1cc(C(=S)N2CCOCC2)cc(Br)c1OS(=O)(=O)c1ccccc1` as the compound, how does the “activity change, negative = inhibition” value read?
The value was inactive: -1.52%.

`O=C(Nc1ccc(Cl)cn1)c1cccc(OCc2ccccc2)c1` was tested. Which Potency did it give?
The Potency was inconclusive: 21.3 µM [inhibitor, partial curve].

With `Cc1cc(C)nc(NS(=O)(=O)c2ccc(NC(=O)COc3ccc(Cl)cc3C)cc2)n1` as the compound, how does the Potency read?
The Potency was inconclusive: 13.5 µM [inhibitor, partial curve, poor fit].

`Cc1ccc(OCC(=O)N2CCCCC2)c(Br)c1` was tested. Which Potency did it give?
Its Potency is inconclusive: 21.3 µM [inhibitor, partial curve].

For `COc1cccc(C(=O)Nc2cccc3cccnc23)c1OC`, which Potency is on record?
Its Potency is active: 23.9 µM.

With `CC1(C)CC(=O)c2cnc(N3CCc4ccccc4C3)nc2C1` as the compound, how does the Potency read?
The Potency was active: 2.69 µM.

`Cc1cccc(NC(=O)N2CCCCCC2)c1` was tested. Which Potency did it give?
The Potency was inconclusive: 23.9 µM [inhibitor, single point].

`Cc1ccc(N2CC(NC(=O)/C=C\c3ccc4c(c3)OCO4)CC2=O)cc1C` (centres undefined) was tested. Which Potency did it give?
Its Potency is inconclusive: 30.1 µM [inhibitor, single point].

`Cc1ccc(NC(=O)Nc2ccc3c(c2)OCO3)nc1` was tested. Which Potency did it give?
The Potency was active: 6.75 µM.

Which Potency does the source give for `CN1CCN(C(=S)NC(=O)/C=C/c2ccccc2)CC1` here?
Its Potency is inconclusive: 37.9 µM [inhibitor, partial curve, poor fit].

How did the Potency turn out when `COC(=O)c1ccc2nc(C(F)(F)F)[nH]c2c1` was run?
Its Potency is inconclusive: 21.3 µM [inhibitor, partial curve, poor fit].

For `Cc1ccccc1Oc1ncnc(N)c1[N+](=O)[O-]`, which “activity change, negative = inhibition” value is on record?
Its value is inactive: -3.08%.

For `Oc1ccc(COCc2ccccc2)c2cccnc12`, which Potency is on record?
The Potency was active: 19 µM.

Which Potency does the source give for `c1cncc(Nc2nc(-c3cccnc3)cs2)c1` here?
The Potency was inconclusive: 26.9 µM [inhibitor, single point].

Which “activity change, negative = inhibition” value does the source give for `O=C(c1ccc(CSc2ccccc2)cc1)N1CCN(c2ccccc2)CC1` here?
Its value is inactive: -12.2%.

With `COC(=O)c1c(NC(=O)CSc2nnc(C)c(=O)[nH]2)sc(C)c1C` as the compound, how does the Potency read?
Its Potency is inconclusive: 13.5 µM [inhibitor, partial curve].

How did the “activity change, negative = inhibition” value turn out when `CCC1CCCCN1C(=O)COC(=O)c1ccc(Br)o1` (centres undefined) was run?
The value was inactive: -29.5%.

For `O=C(O)CCCN(Cc1cccc(Br)c1)S(=O)(=O)c1ccc(Br)cc1`, which Potency is on record?
The Potency was inconclusive: 19 µM [inhibitor, partial curve].

Which Potency does the source give for `O=C(O)c1cc2cc(Cl)cc(Cl)c2oc1=O` here?
The Potency was inconclusive: 13.5 µM [inhibitor, partial curve, poor fit].

Which Potency does the source give for `Cc1c(C(=O)Nc2cccc(-c3nnc4n3CCCCC4)c2)oc2ccccc12` here?
Its Potency is active: 19 µM.

`COCC(=O)Oc1c(Sc2ccc(C)cc2)c(C)nn1C(C)(C)C` was tested. Which Potency did it give?
The Potency was inconclusive: 37.9 µM [inhibitor, partial curve, poor fit].

With `O=C(N/N=C/c1ccccc1C(=O)O)c1cc(-c2ccc3c4c(cccc24)CC3)n[nH]1` as the compound, how does the Potency read?
The Potency was active: 15.1 µM.

With `CCCCN(C)C(=O)c1cn(-c2cccc(OC)c2)c(=O)c2ccccc12` as the compound, how does the “activity change, negative = inhibition” value read?
The value was inactive: -0.487%.

How did the “activity change, negative = inhibition” value turn out when `COc1ccc(NC(=O)Cn2nnc(C(=O)Nc3ccc(F)c(Cl)c3)c2N)cc1` was run?
Its value is inactive: -1.13%.

For `CCC(=O)Nc1ccc2c(c1)ncn2-c1ccccc1`, which Potency is on record?
The Potency was active: 15.1 µM.

How did the Potency turn out when `O=c1oc(CCCO)cc2ccc(C#CC3(O)CCCCC3)cc12` was run?
The Potency was inconclusive: 6.75 µM [inhibitor, single point].

Which Potency does the source give for `COC(=O)C1=C(O)/C(=C\c2cc(C)n(-c3ccc(F)cc3)c2C)N=C1C` here?
Its Potency is inconclusive: 6.75 µM [inhibitor, partial curve].

Which Potency does the source give for `Cc1cc(C)c(C(=O)CSc2nnc(C)c(=O)[nH]2)cc1C` here?
The Potency was inconclusive: 37.9 µM [inhibitor, single point].

For `O=C(N/N=C/c1cn(Cc2ccccc2)c2ccccc12)c1cccnc1`, which Potency is on record?
The Potency was inconclusive: 37.9 µM [inhibitor, single point].

With `CCC(=O)N1CCN(c2ccc(NC(=O)c3ccc([N+](=O)[O-])o3)cc2Cl)CC1` as the compound, how does the “activity change, negative = inhibition” value read?
Its value is inactive: -4.64%.

`CC(=O)N1N=C(c2ccc(C)cc2)CC1c1ccco1` (centres undefined) was tested. Which Potency did it give?
Its Potency is inconclusive: 19 µM [inhibitor, single point].

With `CCN(CC)C(=O)CSc1nc2ccc(NC(=O)CSc3nnc(N)s3)cc2s1` as the compound, how does the Potency read?
Its Potency is inconclusive: 16.9 µM [inhibitor, partial curve].

How did the Potency turn out when `CCOC(=O)c1sc(=NC(=O)COc2ccccc2)n(C)c1C` was run?
Its Potency is inconclusive: 10.7 µM [inhibitor, partial curve, poor fit].

`Cc1ccc(C2C=C(c3ccc(Cl)cc3)Nc3nc(NS(=O)(=O)c4ccccc4)nn32)cc1` (centres undefined) was tested. Which Potency did it give?
Its Potency is inconclusive: 7.57 µM [inhibitor, partial curve].

`CCN1CCN(C(=O)c2cnn(-c3ccc(F)cc3)c2-n2cccc2)CC1` was tested. Which “activity change, negative = inhibition” value did it give?
Its value is inactive: -0.561%.

`CSc1ncccc1C(=O)OCc1ccc(COC(=O)c2cccnc2SC)cc1` was tested. Which “activity change, negative = inhibition” value did it give?
The value was inactive: 5.23%.

`N#Cc1nc(Cc2cccc3ccccc23)oc1NCCN1CCOCC1` was tested. Which “activity change, negative = inhibition” value did it give?
The value was inactive: -1.92%.

How did the Potency turn out when `CC1(C)Cc2ccccc2-c2nnc(SCc3ccccc3)n21` was run?
Its Potency is inconclusive: 9.53 µM [inhibitor, partial curve].

For `COc1ccccc1-c1nc2ccccc2nc1-c1ccccc1OC`, which “activity change, negative = inhibition” value is on record?
The value was inactive: 0.846%.

For `Cc1ccc(/C=C(\C#N)C(=O)Nc2cccc(C)n2)cc1`, which Potency is on record?
Its Potency is active: 2.39 µM.

For `COc1ccc2c(/C=N/Nc3ccc(C(=O)O)cc3)c[nH]c2c1`, which Potency is on record?
The Potency was active: 1.35 µM.

How did the Potency turn out when `COc1ccc2[nH]c3c(NCCCOC(C)C)ncnc3c2c1` was run?
The Potency was active: 6.01 µM.

`Cc1ccc(C(=O)N2CCN(c3ccc(NC(=O)c4ccc5c(c4)OCCO5)cc3)CC2)cc1` was tested. Which Potency did it give?
The Potency was inconclusive: 26.9 µM [inhibitor, single point].

For `Cc1cccc(NCc2cc(Cl)ccc2O)n1`, which Potency is on record?
Its Potency is inconclusive: 30.1 µM [inhibitor, partial curve, poor fit].

`CCCCOc1ccc(/C=N/NC(=O)c2csc(C)c2C)cc1` was tested. Which Potency did it give?
Its Potency is inconclusive: 23.9 µM [inhibitor, single point].

`CC(C)OCCCNC(=O)C1CCC(CNS(=O)(=O)c2ccccc2)CC1` (centres undefined) was tested. Which “activity change, negative = inhibition” value did it give?
The value was inactive: 8.15%.

How did the “activity change, negative = inhibition” value turn out when `CC(NC(=O)c1ccc(N)cc1)c1ccccc1` (centres undefined) was run?
The value was inactive: 3.66%.

How did the Potency turn out when `CCC(C)NC(=O)c1ccc2c(Cl)c3c(nc2c1)CCC3` (centres undefined) was run?
The Potency was active: 4.78 µM.

How did the Potency turn out when `Cc1ccccc1OCC(=O)Nc1ccc2c(c1)ncn2C` was run?
The Potency was active: 21.3 µM.

Which Potency does the source give for `Fc1ccc(C2=NN(c3ccccc3)C(c3ccco3)C2)cc1` (centres undefined) here?
The Potency was inconclusive: 37.9 µM [inhibitor, single point].

Which Potency does the source give for `C/C(=N\NC(=O)c1cc(-c2ccc(C)s2)[nH]n1)c1ccncc1` here?
Its Potency is inconclusive: 21.3 µM [inhibitor, partial curve].

How did the Potency turn out when `CCCCOc1cccc(/C=C(\C#N)C(=O)NC2CC2)c1` was run?
Its Potency is inconclusive: 16.9 µM [inhibitor, partial curve].

How did the Potency turn out when `COc1ccc(-c2cc(=O)oc(-c3cccc(C)c3)n2)cc1` was run?
Its Potency is inconclusive: 2.39 µM [inhibitor, full curve].

`CC(=O)N1CCN(c2ccccc2NC(=O)c2ccc3ccccc3c2)CC1` was tested. Which Potency did it give?
Its Potency is inconclusive: 26.9 µM [inhibitor, single point].

How did the Potency turn out when `CCOC(=O)c1cc(-c2ccccc2)sc1NC(=O)CSc1nnc(N)s1` was run?
The Potency was inconclusive: 37.9 µM [inhibitor, partial curve, poor fit].

How did the “activity change, negative = inhibition” value turn out when `O=C(CC1N=C(Cc2ccccc2)NNC1=O)N/N=C/c1ccc([N+](=O)[O-])cc1` (centres undefined) was run?
The value was inactive: -0.812%.
